From patent US20200140562A1 (Innovent, published 2020) come the findings set out here.

Experiment [1] has as its target T1, human OX40 on cells (CHO-hOX40, 293HEK-hOX40, Jurkat-hOX40, activated primary CD4+ T cells) (human, UniProt P43489 29-277).
T1 sequence (looked up): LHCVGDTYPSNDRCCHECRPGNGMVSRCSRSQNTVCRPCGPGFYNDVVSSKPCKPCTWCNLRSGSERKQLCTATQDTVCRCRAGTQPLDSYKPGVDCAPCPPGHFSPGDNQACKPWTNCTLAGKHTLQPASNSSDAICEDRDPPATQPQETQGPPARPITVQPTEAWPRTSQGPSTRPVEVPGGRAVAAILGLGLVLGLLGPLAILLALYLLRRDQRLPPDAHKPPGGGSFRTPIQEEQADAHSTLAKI
Kind of experiment: cell-based or functional assay.

Experiment [2] has as its target T1, human OX40 on cells (CHO-hOX40, …). The experiment in a line: flow cytometry, CHO-hOX40, 50 nM.
For experiment [3] the target is unchanged. Kind of experiment: flow cytometry, CHO-hOX40, 100 nM.
Experiment [4] shares this target. Kind of experiment: flow cytometry, CHO-hOX40, 12.5 nM.
For experiment [5] the target is unchanged. Kind of experiment: flow cytometry, CHO-hOX40, 6.25 nM.
The target is the same in experiment [6]. The experiment in a line: flow cytometry, 293HEK-hOX40, 8 nM.
Experiment [7] shares this target. Kind of experiment: flow cytometry, CHO-hOX40, 3.125 nM.
For experiment [8] the target is unchanged. Kind of experiment: flow cytometry, CHO-hOX40, 1.5625 nM.
The target is the same in experiment [9]. Kind of experiment: flow cytometry, 293HEK-hOX40, 1.6 nM.
The target is the same in experiment [10]. Kind of experiment: flow cytometry, CHO-hOX40, 0.78125 nM.
Experiment [11] has as its target T2, human OX40_Fc (R&D Systems) (human, UniProt P43489 29-216).
T2 construct: Bought
Kind of experiment: BLI, IgG1 on tip, hOX40-Fc 50 nM, avid.

Experiment [12] concerns the target T1, human OX40 on cells (CHO-hOX40, …). Kind of experiment: flow cytometry, CHO-hOX40, 0.390625 nM.
Experiment [13] shares this target. Kind of experiment: flow cytometry, CHO-hOX40, 0.1953125 nM.
Experiment [14] shares this target. The experiment in a line: flow cytometry, CHO-hOX40, 0.09765625 nM.
The target is the same in experiment [15]. Kind of experiment: flow cytometry, CHO-hOX40, 0.024414063 nM.
For experiment [16] the target is unchanged. The experiment in a line: flow cytometry, CHO-hOX40, 0.048828125 nM.
Experiment [17] has the same target. Kind of experiment: flow cytometry, CHO-hOX40, IgG1 made in 293HEK.
Experiment [18] has the same target. Kind of experiment: flow cytometry, MFI on CHO-hOX40 over wild-type CHO.
The target is the same in experiment [19]. The experiment in a line: flow cytometry, activated CD4+ T cells, donor 2, 100 nM.
Experiment [20] shares this target. The experiment in a line: flow cytometry, CHO-hOX40, 100 nM blocker, competitor OX40L-hFc-fluorescein.

B1: ADI-20112, IgG1 format (antibody)
heavy: QVQLVESGGGVVQPGRSLRLSCAASGFTFSSYGMHWVRQAPGKGLEWVAVISYDGSNKYYADSVKGRFTISRDNSKNTLYLQMNSLRAEDTAVYYCARGRPWYSETGTSAFDIWGQGTMVTVSS[human IgG1 constant region cut from this listing]
light: DIQMTQSPSSLSASVGDRVTITCQASQDISNYLNWYQQKPGKAPKLLIYDASNLETGVPSRFSGSGSGTDFTFTISSLQPEDIATYYCQQSDHYPTFGGGTKVEIKRTVAAPSVFIFPPSDEQLKSGTASVVCLLNNFYPREAKVQWKVDNALQSGNSQESVTEQDSKDSTYSLSSTLTLSKADYEKHKVYACEVTHQGLSSPVTKSFNRGEC
notes: Made in yeast, 293HEK or CHO cells, depending on the assay; also called ADI-20112-g1
Regarding B1, the “NFkB-Luc fold change in Jurkat stimulated by PHA+ anti-CD28” value (“NFkB-Luc fold change … by PHA+ anti-CD28” for short) in [1] came out at 4.19 fold over IgG4 control. Besides, the “NFkB-Luc fold change in Jurkat stimulated by anti-CD3+ anti-CD28” value in [1] stood at 3.97 fold over IgG4 control. Also, the MFI in experiment [2] is 4.04e+06 MFI; in experiment [4], 3.64e+06 MFI; in [5], 2.64e+06 MFI; in experiment [6], 1.98e+06 MFI; in experiment [7] it was 1.98e+06 MFI; in experiment [8] it was 1.54e+06 MFI. For the same molecule, the MFI was found to be 895000 MFI in [9]; 655000 MFI in experiment [10]; 303000 MFI in experiment [12]; 226000 MFI in experiment [13]; 80600 MFI in [14]; 36800 MFI in [15]. The MFI in experiment [16] came out at 56300 MFI; in [19] it was 125000 MFI. For the same molecule, the “CHO-OX40 binding intensity (MFI)” value in [3] came out at 153000 MFI. In experiment [11], this molecule came in with a dissociation constant Kd of 0.735 nM. In experiment [17], it took 2.8 nM to reach a half-maximal effect (EC50). This molecule also registered a Fold difference in experiment [18] of 2410 fold. Also, the “MFI of OX40L signal on CHO-OX40 cells” value in experiment [20] was determined as 22500 MFI.

B2: ADI-20051, IgG1 format (antibody)
heavy: QVQLQQWGAGLLKPSETLSLTCAVYGGSFSGYYWSWIRQPPGKGLEWIGEIDHSGSTNYNPSLKSRVTISVDTSKNQFSLKLSSVTAADTAVYYCARDGGGGYASPFDYWGQGTLVTVSS[human IgG1 constant region cut from this listing]
light: EIVMTQSPATLSVSPGERATLSCRASQSVSSNLAWYQQKPGQAPRLLIYGASTRATGIPARFSGSGSGTEFTLTISSLQSEDFAVYYCQQYHAWPPTFGGGTKVEIKRTVAAPSVFIFPPSDEQLKSGTASVVCLLNNFYPREAKVQWKVDNALQSGNSQESVTEQDSKDSTYSLSSTLTLSKADYEKHKVYACEVTHQGLSSPVTKSFNRGEC
notes: Made in yeast or 293HEK cells, depending on the assay
For the molecule B2, in experiment [1], the “NFkB-Luc fold change … by PHA+ anti-CD28” value was 1.83 fold over IgG4 control. The “NFkB-Luc fold change in Jurkat stimulated by anti-CD3+ anti-CD28” value in experiment [1] was determined as 1.29 fold over IgG4 control. The MFI in [2] amounted to 3.8e+06 MFI; in experiment [4], 3.52e+06 MFI; in experiment [5], 3.06e+06 MFI; in experiment [6], 2.33e+06 MFI; in experiment [7] it was 2.82e+06 MFI; in [8] it was 977000 MFI. Further, the MFI in experiment [9] stood at 788000 MFI; in experiment [10] it was 604000 MFI; in [12], 494000 MFI; in experiment [13] it was 294000 MFI; in experiment [14] it was 125000 MFI; in experiment [15], 43200 MFI. The MFI is 63900 MFI in experiment [16] and 172000 MFI in [19]. For the same molecule, in experiment [3], the “CHO-OX40 binding intensity (MFI)” value stood at 151000 MFI. This molecule also returned a dissociation constant Kd in [11] of 0.74 nM. In experiment [17], this molecule gave a half-maximal effective concentration (EC50) of 2.73 nM. The same molecule returned a Fold difference in experiment [18] of 1570 fold. Also, in experiment [20], the “MFI of OX40L signal on CHO-OX40 cells” value came out at 17200 MFI.

B3: ADI-20118, IgG1 format (antibody)
heavy: QVQLVQSGAEVKKPGASVKVSCKASGYTFTSYAISWVRQAPGQGLEWMGWISAYNGNTNYAQKLQGRVTMTTDTSTSTAYMELRSLRSDDTAVYYCARSGGGSGPNWFDPWGQGTLVTVSS[human IgG1 constant region cut from this listing]
light: DIQMTQSPSSLSASVGDRVTITCQASQDISNYLNWYQQKPGKAPKLLIYDASNLETGVPSRFSGSGSGTDFTFTISSLQPEDIATYYCQQPATLPWTFGGGTKVEIKRTVAAPSVFIFPPSDEQLKSGTASVVCLLNNFYPREAKVQWKVDNALQSGNSQESVTEQDSKDSTYSLSSTLTLSKADYEKHKVYACEVTHQGLSSPVTKSFNRGEC
notes: as for B2
Take B3: the “NFkB-Luc fold change … by PHA+ anti-CD28” value in [1] was found to be 3.99 fold over IgG4 control. In addition, the “NFkB-Luc fold change in Jurkat stimulated by anti-CD3+ anti-CD28” value in [1] amounted to 5.27 fold over IgG4 control. The MFI in experiment [2] was 3.35e+06 MFI; in experiment [4], 2.43e+06 MFI; in [5], 1.91e+06 MFI; in experiment [6] it was 1.96e+06 MFI; in [7] it was 1.42e+06 MFI; in [8] it was 834000 MFI. Also, the MFI in [9] was 849000 MFI; in [10], 530000 MFI; in [12], 192000 MFI; in experiment [13], 132000 MFI; in [14] it was 75500 MFI; in [15], 19000 MFI. Also, the MFI in experiment [16] worked out at 42700 MFI; in [19], 107000 MFI. Also, the “CHO-OX40 binding intensity (MFI)” value in experiment [3] was determined as 144000 MFI. The molecule further displayed a dissociation constant Kd in [11] of 0.51 nM. This molecule came in with an EC50 in experiment [17] of 6.71 nM. Also, the Fold difference in experiment [18] amounted to 1870 fold. Moreover, the “MFI of OX40L signal on CHO-OX40 cells” value in experiment [20] worked out at 26600 MFI.
